Reference: the supplement of paper PMC10126150
Values marked as one replicate rest on one cluster of the flow cell; about a third of the high ones do not repeat.

Test system: ATP
Assay: switch fluorescence ratio, 500 uM ATP over buffer (Cy3 cluster intensity, sum of 5 cycles each) (fold (ratio)); higher = stronger signal-on switching upon ATP binding; sequences stand for … in TCGTCGGCAGCGTCAGATGTGTATAAGAGACAGTTTTTTTTTTTTTTTTTTTTTTTTT…TC
Conditions: aptamer strand: ATP DNA aptamer (quencher-CACCTGGGGGAGTATTGCGGAGGAAGG + anchor), 100 nM annealed; ATP concentration: 500 uM; one replicate
Method in brief: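 Values give the fluorescence ratio for each switch-domain sequence, averaged from per-cluster ratios of summed target-cycle to summed buffer-cycle Cy3 intensity. The Cy3-labelled switching-strand clusters sat on a modified Illumina MiSeq flow-cell, were annealed to 100 nM quencher-labelled ATP aptamer, and were imaged in selection buffer, then after 15 min with 500 uM ATP at 22 °C. Five cycles ran with NaOH stripping and re-annealing between them, and clusters outside 100-1000 RFU were excluded.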
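Also: ATP exposure 15 min at 22 °C before imaging.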

Row | Sequence | switch fluorescence ratio
1 | GATGGTCTTA | 0.97
2 | GATGGTTCTT | 0.987
3 | GATGTAGAAT | 0.996
4 | GATGTATGCT | 1.01
5 | GATGTGGGGA | 0.997
6 | GATGTTAGT | 0.996
7 | GATGTTATCT | 1.01
8 | GATGTTATGT | 0.993
9 | GATTAAACGC | 1.02
10 | GATTAATGGA | 1
11 | GATTAATTCC | 1.04
12 | GATTACATTA | 1.01
13 | GATTACCGGC | 1.04
14 | GATTACTC | 1.04
15 | GATTAGAGGA | 1.02
16 | GATTAGAGGT | 0.964
17 | GATTAGTACG | 0.986
18 | GATTATAGA | 1.02
19 | GATTATGCAA | 1.05
20 | GATTCAAGGT | 0.986
21 | GATTCACCTA | 1
22 | GATTCATTAC | 1.27
23 | GATTCCGAGT | 1.11
24 | GATTCGAGCC | 0.989
25 | GATTCGAGCG | 1.03

Row | Sequence | switch fluorescence ratio
26 | GATTCGTCGA | 0.957
27 | GATTCTCCAC | 0.998
28 | GATTCTCCCA | 0.986
29 | GATTCTGTGC | 0.961
30 | GATTCTTGGA | 0.955
31 | GATTCTTTCG | 0.938
32 | GATTGAGACC | 1.01
33 | GATTGATACC | 0.999
34 | GATTGCCGCT | 0.96
35 | GATTGCCTTG | 1.03
36 | GATTGCTGCG | 1.05
37 | GATTGCTTAG | 1.02
38 | GATTGGCATA | 1.01
39 | GATTGGGATG | 0.968
40 | GATTGTTCCG | 0.954
41 | GATTGTTGTT | 1.02
42 | GATTTAAAAC | 1.01
43 | GATTTACTCA | 1.02
44 | GATTTAGAC | 0.993
45 | GATTTAGGTC | 1.02
46 | GATTTATTCC | 1.02
47 | GATTTGAAGA | 0.964
48 | GATTTGCTCG | 0.99
49 | GATTTGTGGT | 0.966
50 | GATTTGTTGA | 1.01

Row | Sequence | switch fluorescence ratio
51 | GATTTTCATC | 0.991
52 | GATTTTCTCG | 0.979
53 | GATTTTGAAT | 1.02
54 | GATTTTGCA | 0.966
55 | GCAAACAT | 1
56 | GCAAAGAATG | 1.03
57 | GCAAAGCTTC | 1.12
58 | GCAAAGGATA | 1.03
59 | GCAAAGTGAG | 1.01
60 | GCAACATAGA | 0.973
61 | GCAACGGCTG | 1.01
62 | GCAACGTCGT | 1.01
63 | GCAACTTAGT | 0.99
64 | GCAACTTGCA | 1.03
65 | GCAAGAGCCG | 0.937
66 | GCAAGCTAAA | 1.18
67 | GCAAGGCGCA | 1.05
68 | GCAAGGGCAT | 1.01
69 | GCAAGGGCCT | 1.03
70 | GCAAGGTGAC | 1.36
71 | GCAAGTAGTC | 1.2
72 | GCAATAACAC | 2
73 | GCAATATGG | 1.85
74 | GCAATCGCGT | 1.02
75 | GCAATGAGTG | 1.06

Row | Sequence | switch fluorescence ratio
76 | GCAATGATTT | 1.05
77 | GCAATGGGCC | 1.63
78 | GCAATTCGTG | 1.12
79 | GCAATTTAA | 1.03
80 | GCACAAAGAG | 1.05
81 | GCACACCCGT | 1.14
82 | GCACACCTTC | 1.23
83 | GCACACGTTG | 1.02
84 | GCACACTCGA | 1.06
85 | GCACATAACA | 1.12
86 | GCACCACGGA | 1.1
87 | GCACCCGTGC | 1.02
88 | GCACCCTAGG | 1.28
89 | GCACCCTGGT | 1.05
90 | GCACCTTTTT | 1.2
91 | GCACGAGAAC | 1.08
92 | GCACGATCCC | 1.36
93 | GCACGCAACG | 1.28
94 | GCACGCCGCG | 1.08
95 | GCACGCTATT | 1.25
96 | GCACGTGCTG | 0.988
97 | GCACTAAATT | 1.03
98 | GCACTAGCAA | 1.04
99 | GCACTATCAA | 1.07
100 | GCACTATGTT | 0.987
